Measured values from PubChem BioAssay AID588591 (National Center for Advancing Translational Sciences (NCATS), 2011).
Where “and” joins values, the source holds several entries; their conditions need not be identical. Identical values can stand only once. Among all 390,000 compounds or so, about 4,700 (1.2%) were called active. About 4% were inconclusive and are not listed. Calls follow the shape of the dose curve; as a rule, active = well fitted inhibition curve with a large enough effect; inconclusive = small, poorly fitted or top-dose-only effect, or another doubt; inactive = no such curve, though single readings can be large or run the other way. The list shows a part of the results, in another mix than the full data. More than one record can exist for a structure, and the calls need not agree.

The compounds below were run against DNA polymerase eta (Homo sapiens) (UniProt Q9Y253) (assay: qHTS for Inhibitors of Polymerase Eta). Settings: recombinant Pol eta, fluorescent DNA replication assay; series mostly up to 114 µM; activity change, negative = inhibition: at the top concentration.
Sequence of UniProt Q9Y253 (Q9Y253 whole entry, looked up): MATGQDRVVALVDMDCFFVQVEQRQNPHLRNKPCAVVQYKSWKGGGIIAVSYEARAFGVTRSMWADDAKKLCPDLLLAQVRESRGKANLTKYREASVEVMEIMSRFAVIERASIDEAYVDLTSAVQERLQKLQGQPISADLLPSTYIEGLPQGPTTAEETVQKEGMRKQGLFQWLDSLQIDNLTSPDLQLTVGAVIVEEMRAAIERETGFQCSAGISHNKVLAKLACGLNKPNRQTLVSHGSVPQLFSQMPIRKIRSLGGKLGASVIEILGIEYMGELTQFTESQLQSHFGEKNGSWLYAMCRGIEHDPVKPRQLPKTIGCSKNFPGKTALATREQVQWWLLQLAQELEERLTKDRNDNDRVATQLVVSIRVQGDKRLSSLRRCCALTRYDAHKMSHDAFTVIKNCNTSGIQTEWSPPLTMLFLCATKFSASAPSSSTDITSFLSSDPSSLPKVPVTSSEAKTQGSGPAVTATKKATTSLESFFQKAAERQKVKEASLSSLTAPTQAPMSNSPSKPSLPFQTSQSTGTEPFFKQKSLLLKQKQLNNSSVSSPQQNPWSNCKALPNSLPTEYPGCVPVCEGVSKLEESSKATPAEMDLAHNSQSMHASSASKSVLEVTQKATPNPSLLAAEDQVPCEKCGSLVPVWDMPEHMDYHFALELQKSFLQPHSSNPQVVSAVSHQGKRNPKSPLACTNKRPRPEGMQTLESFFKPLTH
Description: The Y-family of DNA polymerases, such as Pol eta, are specifically involved in DNA repair. Pol eta copies undamaged DNA with a lower fidelity than other DNA-directed polymerases. However, it accurately replicates UV-damaged DNA; when thymine dimers are present, this polymerase inserts the complementary nucleotides in the newly synthesized DNA, thereby bypassing the lesion and suppressing the mutagenic effect of UV-induced DNA damage. […] Thus, while pol eta's (and most likely iota's) normal function is to protect humans against the deleterious consequences of DNA damage, under certain conditions they can have deleterious effects on human health. As a consequence, we propose to utilize a high throughput replication assay to identify small molecule inhibitors of pol eta. In a collaboration between the National Institute of Child Health & Human Development (NICHD) and NIH Chemical Genomics Center, a high-throughput, fluorescent screen was developed to screen the NIH Molecular Libraries Small Molecule Repository (MLSMR). This screen is used to identify inhibitors of pol eta. NIH Chemical Genomics Center [NCGC] NIH Molecular Libraries Probe Centers Network [MLPCN] MLPCN Grant: MH090825 Assay Submitter (PI): Roger Woodgate, NICHD)
Three microliters of reagents (buffer in column 3 and 4 as negative control and 10 nM Pol eta in columns 1, 2, and 5-48) were dispensed into a 1,536-well black solid-bottomed plate. Compounds (23 nL) were transferred via Kalypsys pin tool equipped with 1536-pin array. The plates were then incubated for 15 min at room temperature, and 1 µL substrate (50 nM final concentration) was added to start the reaction and kinetically read twice at 0 min and 10 min on the Viewlux reader
% is scaled to controls: 0 for no effect and ±100 for the full control effect; potency is read from the fitted curve at half-maximal effect.

Compound | activity change, negative = inhibition | Potency
C[Se]C[C@H](N)C(=O)O | inactive: -0.968% [at 57.1 µM] | –
CC(=O)[C@H]1CCC2C3CC[C@H]4C[C@@H](O)CC[C@]4(C)C3CC[C@@]21C (stereo partly specified) | inactive: -9.89% | –
N#CC(C#N)=NNc1ccc(S(N)(=O)=O)cc1 | – | active: 12.6 µM
N#CC(C#N)=Cc1ccc(O)c(O)c1 | inactive: -5.86% | –
COc1cccc(N2CCN(C(=O)C3CCN(S(=O)(=O)c4ccc5c(c4)oc(=O)n5C)CC3)CC2)c1 | inactive: -3.83% | –
CC(=O)C1CCC2C3CCC4CC(O)CCC4(C)C3CCC12C (stereo unspecified) | inactive: -22% | –
CCOC(=O)c1ccc(Nc2nc(C)cc(C)n2)cc1 | inactive: -8.63% | –
CCC(=NCc1cccnc1)c1c(O)n(-c2ccc(Cl)cc2)c(=O)[nH]c1=O | inactive: 74.8% | –
CC[C@@H](CO)NC(=O)[C@@H]1C=C2c3cccc4c3c(cn4C)C[C@H]2N(C)C1 | – | inactive
Cc1ccc(C(=O)N2CCc3cc(CNC(=O)c4ccnn4C)ccc32)cc1 | inactive: 14.3% | –
O=C1NC2NC(=O)N([N+](=O)[O-])C2N1 (stereo unspecified) | inactive: 43.2% | –
CC(=O)c1ccc2c(c1)C1C(Cl)C(Sc3ccccc3[N+](=O)[O-])CC1C(C(=O)O)N2 (stereo unspecified) | – | active: 3.55 µM
Cc1csc(NC(=O)C(Cl)c2ccccc2)n1 (stereo unspecified) (tested in a mixture with another compound) | inactive: 29.3% | –
Nc1nonc1C(=O)N/N=C/c1ccc([N+](=O)[O-])o1 | – | active: 20 µM
CCCCCCC(C)(C)c1ccc([C@@H]2C[C@H](O)CC[C@H]2CCCO)c(O)c1 | inactive: -5.74% | –
CC[C@@H](CO)NC(=O)[C@@H]1C=C2c3cccc4[nH]cc(c34)C[C@H]2N(C)C1 | inactive: -6.6% | –
COc1cc2c(cc1O)C[C@H]1c3c(cc(O)c(OC)c3-2)CCN1C | inactive: -6.36% | –
CCC1(O)C(=O)OCc2c1cc1n(c2=O)Cc2cc3cc(O)ccc3nc2-1 (stereo unspecified) | – | active: 17.8 µM

Compound | activity change, negative = inhibition | Potency
COc1cc2c(cc1OC)-c1c(OC)c(OC)cc3c1C(C2)N(C)CC3 (stereo unspecified) | inactive: -24.1% | –
CC(Cc1ccc(O)cc1)NCC(O)c1ccc(O)c(O)c1 (stereo unspecified) | – | active: 3.98 µM
Cn1c(O)c(C=NC2CC3CCC2(C)C3(C)C)c(=O)[nH]c1=O (stereo unspecified) | inactive: -8.59% | –
Cc1cc(/C=C2\C(=O)NC(=O)N(c3ccc(Cl)cc3)C2=O)c(C)n1-c1sc2c(c1C#N)CCCC2 | – | active: 20 µM
O=C1C=CC(=O)C=C1 | inactive: -16.2% | –
Clc1ccc(C(c2ccc(Cl)cc2)n2cc[n+](CC(OCc3ccc(Cl)cc3Cl)c3ccc(Cl)cc3Cl)c2)cc1 (stereo unspecified) | inactive: -22.9% | –
Cc1ccc(/C=C2\C(=O)NC(=O)N(CCc3ccc(F)cc3)C2=O)o1 | inactive: -13.9% | –
Cc1ccc(CN2CCCC(C(=O)c3ccc4c(c3)OCO4)C2)cc1C (stereo unspecified) | inactive: 31.1% | –
CCC(CO)NC(=O)C1C=C2c3cccc4[nH]cc(c34)CC2N(C)C1 (stereo unspecified) | inactive: 1.97% | –
O=c1c(O)c(-c2ccc(O)c(O)c2)oc2cc(O)cc(O)c12 | – | active: 794 nM and active: 708 nM
C[C@]12CC[C@@H](O)C[C@@H]1CC[C@@H]1[C@@H]2CC[C@]2(C)C(=O)[C@H](O)C[C@@H]12 | inactive: -17.2% | –
O=C1NC(=O)N(Cc2ccc(F)cc2)C(=O)/C1=C\C=C\c1ccco1 | – | active: 20 µM
C/C(=C/CCC(C)[C@H]1CC[C@@]2(C)C3=C(CC[C@]12C)[C@@]1(C)CCC(=O)C(C)(C)[C@@H]1CC3)C(=O)O (stereo partly specified) | – | active: 79.4 µM
O=c1[nH]c(=S)n(-c2ccc(Br)cc2)c(O)c1C=Nc1ccc(N2CCOCC2)cc1 | inactive: 24.3% | –
CCN1CCc2ccccc2C1 | inactive: 37.2% | –
NC1C=CC=C(C(=O)O)C1 (stereo unspecified) | inactive: -4.43% | –
O=c1oc2ccccc2c(O)c1C(c1ccc([N+](=O)[O-])cc1)c1c(O)c2ccccc2oc1=O | – | active: 20 µM
CN1C(=O)C(=Cc2c(OCc3cnc(Cl)s3)ccc3ccccc23)C(=O)N(C)C1=O | inactive: 25.9% | –
